In all, about 420,000 compounds went through this assay and about 64,000 (15%) were called active. The shares of active, inactive and inconclusive entries below differ from those in the screen. The call rests on the fitted dose curve; in most records, active means well fitted inhibition curve with a large enough effect; inconclusive means small, poorly fitted or top-dose-only effect; inactive means flat fitted curve, though single readings scatter. Potencies of inconclusive entries are left out as doubtful fits.
Assay: qHTS for Inhibitors of human tyrosyl-DNA phosphodiesterase 1 (TDP1): qHTS in cells in absence of CPT; further: nearly all actives have a fitted effect of over 55% in size
Details: DT40 Tdp1-/- hTDP1 cells, no CPT, ATP luminescence, 48 h; activity change, negative = growth inhibition: at 46.2 µM (top of the series)
In short: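 Readout: luminescence from CellTiter-Glo after 30 min in the dark at RT. Cells: DT40 Tdp1-/- with stable hTDP1, 400/well. Exposure: compounds alone, ≥48 hr, 37 °C.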
On the % scale 0 is the no-effect control and ±100 the full control effect; potency means the concentration at half of the fitted maximal effect; tags describe the fitted curve by direction and shape.

Q: Which Potency does the source give for CCC(=O)N1CCCC(C)(C(=O)NS(=O)(=O)c2cccs2)C1 (stereo not given) here?
A: The Potency was “inactive”.

Q: Which Potency does the source give for CCOc1ccc(NC(=O)C2CCN(S(=O)(=O)c3c(C)noc3/C=C/c3cccs3)CC2)cc1 here?
A: The Potency was inconclusive [inhibitor, partial curve].

Q: With CCCCCCC1CCC(C(=O)N2CCOCC2)CC1 (stereo not given) as the compound, how does the Potency read?
A: The Potency was inconclusive [inhibitor, single point].

Q: Which Potency does the source give for Cc1cc2nc(-c3ccc(C#N)cc3)c(Cc3ccsc3)n2c(C)c1Br here?
A: The Potency was active: 16.4 µM.

Q: With CN(C)c1ncnc2c1ncn2[C@H]1CN(Cc2ccc3c(c2)OCO3)C[C@@H](CO)O1 as the compound, how does the Potency read?
A: Its Potency is inconclusive [inhibitor, single point].

Q: For CCCN(CC(=O)Nc1ccccc1C)C(=O)c1ccc(-c2ccc(C(C)=O)cc2)o1, which Potency is on record?
A: The Potency was inconclusive [inhibitor, single point].

Q: For CCOC(=O)c1c(-c2ccccc2)csc1NC(=O)c1cc(-c2ccccc2OC)on1, which Potency is on record?
A: The Potency was inconclusive [inhibitor, partial curve].

Q: With COC(=O)Cc1nc2c(N)nc(N)nc2[nH]c1=O as the compound, how does the Potency read?
A: The Potency was “inactive”.

Q: With COC(=O)c1ccc2c(c1)C(C)(C)C(/C=C/c1ccc(O)cc1)=[N+]2C as the compound, how does the Potency read?
A: Its Potency is active: 2.82 µM.

Q: Which Potency does the source give for Cc1[nH]n(-c2ccc([N+](=O)[O-])cc2)c(=O)c1/C=N/N1CCOCC1 here?
A: The Potency was inconclusive [inhibitor, partial curve].

Q: For CCc1ccccc1NS(=O)(=O)c1cc2c(cc1C)n(C)c(=O)c(=O)n2C, which Potency is on record?
A: The Potency was “inactive”.

Q: Which Potency does the source give for Cc1onc(-c2c(F)cccc2Cl)c1C(=O)OCC(=O)NCc1ccco1 here?
A: The Potency was inconclusive [inhibitor, partial curve].

Q: With Cc1occc1C(=O)N1CCN(c2ccc([N+](=O)[O-])cc2)CC1 as the compound, how does the Potency read?
A: Its Potency is inconclusive [inhibitor, single point].

Q: Which Potency does the source give for Cn1cccc1-c1cc2n(n1)CCC(=O)N2CCCC(=O)NCc1ccc(F)cc1 here?
A: Its Potency is “inactive”.

Q: For CC(=O)c1ccc(N=c2scc(C)n2C(C)C)cc1, which Potency is on record?
A: The Potency was inconclusive [inhibitor, single point].

Q: With CCOc1ccc2nc(N3CCCC(C(=O)NCCCN4CCCCC4)C3)sc2c1 (stereo not given) as the compound, how does the Potency read?
A: The Potency was inconclusive [inhibitor, single point].

Q: For C/C(=N\N1CCN(c2ccc(Cl)cc2)CC1)c1cccc([N+](=O)[O-])c1, which activity change, negative = growth inhibition is on record?
A: Its activity change, negative = growth inhibition is inconclusive: -31.3% [inhibitor].

Q: For CN(C)c1ccc(/C=C/c2cncc3ccccc23)cc1, which Potency is on record?
A: The Potency was inconclusive [inhibitor, partial curve].

Q: With Cc1ccccc1-c1nccc(NCCN2CCOCC2)n1 as the compound, how does the Potency read?
A: The Potency was “inactive”.

Q: With CCCOc1ccc(C(=O)NNC(=O)c2cccc(S(=O)(=O)N3CCN(C(C)=O)CC3)c2)cc1OC as the compound, how does the Potency read?
A: The Potency was “inactive”.

Q: Which Potency does the source give for O=C(COc1ccc(-c2ccccc2)cc1)N1CCN(C(=O)c2cccs2)CC1 here?
A: Its Potency is inconclusive [inhibitor, single point].

Q: With Cc1[nH]c(C)c(S(=O)(=O)NCc2ccc(F)cc2)c1C(=O)N1CCCC1 as the compound, how does the Potency read?
A: Its Potency is “inactive”.

Q: For O=C(CSc1nnc2ccc(-c3ccc(Br)cc3)nn12)NCC1CCCO1 (stereo not given), which Potency is on record?
A: Its Potency is inconclusive [inhibitor, single point].

Q: For O=C(C[n+]1ccc(Cc2ccccc2)cc1)Nc1ccccc1, which Potency is on record?
A: The Potency was inconclusive [inhibitor, single point].

Q: With CC(=NO)c1ccc2c(c1)Cc1cc([N+](=O)[O-])ccc1-2 as the compound, how does the Potency read?
A: The Potency was active: 13 µM.

Q: Which Potency does the source give for CCOC(=O)c1c(C)[nH]c(C(=O)COC(=O)CCC2CCCC2)c1C here?
A: The Potency was inconclusive [inhibitor, single point].

Q: With COc1ccc(Cl)cc1NC(=O)CN(C)C(=O)c1sc2ccccc2c1Cl as the compound, how does the Potency read?
A: The Potency was inconclusive [inhibitor, single point].

Q: Which Potency does the source give for Cc1cc(=O)[nH]c2nnc(SCc3ccc(C(F)(F)F)cc3)n12 here?
A: Its Potency is “inactive”.

Q: Which Potency does the source give for Cc1cccc(C)c1NC(=O)Cn1c(SCC(=O)NCc2ccccc2)nc2ccccc21 here?
A: The Potency was inconclusive [inhibitor, partial curve].

Q: Which Potency does the source give for Cc1ccc(NC(=O)c2ncoc2-c2ccco2)cc1Cl here?
A: Its Potency is inconclusive [inhibitor, single point].

Q: For Cc1ccc2nc(-c3ccccc3)nn2c1, which Potency is on record?
A: Its Potency is inconclusive [inhibitor, single point].

Q: With CCCC[C@@H]1C[C@H]1[C@@H](NC(=O)c1cccs1)c1ccc(C(F)(F)F)cc1 as the compound, how does the Potency read?
A: The Potency was active: 20.6 µM.

Q: For CN(C)c1nc(-c2ccoc2)nc2ccccc12, which Potency is on record?
A: Its Potency is “inactive”.

Q: For Cc1cnc(C(=O)OCC(=O)c2ccc(C)s2)cn1, which Potency is on record?
A: Its Potency is “inactive”.

Q: For CCn1cc(C(=O)Nc2ccc(OC)c(OC)c2)c2cc(OC)c(OC)cc2c1=O, which Potency is on record?
A: Its Potency is inconclusive [inhibitor, single point].

Q: For CCn1c(=O)c(C(=O)CN2CCN(S(=O)(=O)c3ccc(C)cc3C)CC2)c(N)n(Cc2ccccc2)c1=O, which Potency is on record?
A: Its Potency is inconclusive [inhibitor, single point].

Q: With O=C1NC(=Nc2ccc(Cl)cc2)SC1Cc1cccc(Cl)c1Cl (stereo not given) as the compound, how does the Potency read?
A: Its Potency is inconclusive [inhibitor, partial curve].

Q: Which Potency does the source give for Cn1nccc1C(=O)NC1CC(C)(C)Cc2c1cnn2-c1ccc(F)cc1 (stereo not given) here?
A: Its Potency is inconclusive [inhibitor, single point].

Q: For CCN(CCCNC(=O)CN(C)S(=O)(=O)c1cccc2nsnc12)c1ccccc1, which Potency is on record?
A: The Potency was inconclusive [inhibitor, partial curve].

Q: For COc1ccc(N2CCN(C(=O)[C@@H]3CCCN3C3=NS(=O)(=O)c4ccccc43)CC2)cc1, which Potency is on record?
A: The Potency was “inactive”.

Q: Which Potency does the source give for O=S(=O)(Nc1cccnc1)c1cccnc1 here?
A: The Potency was “inactive”.

Q: With CCCCNC(=S)Nc1ccc(OC)nc1 as the compound, how does the Potency read?
A: Its Potency is “inactive”.

Q: For Cc1nc(C(F)(F)F)ccc1C(=O)N1CCC1(C)C(=O)NCc1ccc(Cl)cc1 (stereo not given), which Potency is on record?
A: The Potency was inconclusive [inhibitor, single point].

Q: For COc1ccc(CC(=O)Nc2ccccc2N2CCCCC2)cc1OC, which Potency is on record?
A: The Potency was inconclusive [inhibitor, single point].

Q: Which activity change, negative = growth inhibition does the source give for CC(=O)c1cccc(NC(=O)CCNC(=O)c2ccccc2Cl)c1 here?
A: The activity change, negative = growth inhibition was inconclusive: -34.8% [inhibitor].

Q: Which Potency does the source give for CCOC(=O)C1CCN(C(=O)c2c(-c3ccccc3)noc2C)CC1 here?
A: The Potency was “inactive”.

Q: Which Potency does the source give for CCOc1nc(-c2ccccc2)ccc1-c1noc(-c2cccnc2)n1 here?
A: The Potency was active: 3.66 µM.

Q: With CCCCn1c(NC(=O)c2ccco2)c(S(=O)(=O)c2ccc(C)cc2)c2nc3ccccc3nc21 as the compound, how does the Potency read?
A: Its Potency is inconclusive [inhibitor, single point].

Q: With CCCN(CCC)C(=O)c1ccc2c(c1)N(Cc1ccccc1)C(=O)CS2=O (stereo not given) as the compound, how does the Potency read?
A: Its Potency is inconclusive [inhibitor, partial curve].

Q: For Cc1ccsc1C1C=C(c2cccc(Br)c2)Nc2ncnn21 (stereo not given), which Potency is on record?
A: The Potency was inconclusive [inhibitor, partial curve].

Q: With COc1cc(OC)cc(C(=O)NNC(=O)CN2C(=O)NC(C)(c3ccccc3)C2=O)c1 (stereo not given) as the compound, how does the Potency read?
A: Its Potency is “inactive”.

Q: With COC(=O)c1ccc2c(C)c(C3(O)CCCCC3)[nH]c2c1 as the compound, how does the Potency read?
A: Its Potency is inconclusive [inhibitor, single point].

Q: For Cc1cc(C(=O)Nc2ccccc2-c2nc(CNC(=O)c3cscn3)c(C)o2)c(C)o1, which Potency is on record?
A: Its Potency is “inactive”.

Q: For COc1cc2c(cc1OC)CN(CC(=O)Nc1cccc(C)c1)CC2, which Potency is on record?
A: Its Potency is inconclusive [inhibitor, partial curve, poor fit].

Q: For Fc1ccccc1COc1ccc2ccccc2c1CNc1nn[nH]n1, which Potency is on record?
A: The Potency was “inactive”.

Q: Which Potency does the source give for Cc1cc(Cn2nc(-c3ccccc3)cc2C(=O)NCc2cccc(C(F)(F)F)c2)on1 here?
A: Its Potency is inconclusive [inhibitor, single point].

Q: With CC(C)CCNC(=O)c1ccc2c(c1)N(Cc1ccccc1F)C(=O)c1ccccc1S2(=O)=O as the compound, how does the Potency read?
A: Its Potency is inconclusive [inhibitor, partial curve].

Q: For O=c1/c(=C\c2cccnc2)sc2nc3ccccc3n12, which activity change, negative = growth inhibition is on record?
A: The activity change, negative = growth inhibition was inconclusive: -36.7% [inhibitor].

Q: With COC(=O)CCCC[C@@H]1O[C@H](CCc2ccccc2)Cc2[nH][nH]c(=O)c21 as the compound, how does the activity change, negative = growth inhibition read?
A: The activity change, negative = growth inhibition was inconclusive: -31.3% [inhibitor].

Q: Which Potency does the source give for COc1ccccc1NC(=O)C(CC=C(Cl)Cl)C(C)=O (stereo not given) here?
A: The Potency was inconclusive [inhibitor, single point].

Q: For COc1ccc(CCNC(=O)CSCc2ccc(C)cc2)cc1OC, which Potency is on record?
A: The Potency was inconclusive [inhibitor, single point].

Q: Which Potency does the source give for O=C(NCc1cccc(Cl)c1)C1CCCN(c2ncnc3c2nc2n3CCCCC2)C1 (stereo not given) here?
A: The Potency was active: 11.6 µM.

Q: With CCN(CC)C(=O)Oc1c(Cl)cc(Cl)c2cccnc12 as the compound, how does the Potency read?
A: The Potency was inconclusive [inhibitor, partial curve, poor fit].

Q: For O=C(Nc1nccs1)C(c1ccccc1)N1CCCCC1 (stereo not given), which Potency is on record?
A: The Potency was “inactive”.

Q: For CC1=C(C(=O)N(C(C)C)C(C)C)CC(CC(=O)NCc2cccs2)C(=O)N1Cc1ccc(F)cc1 (stereo not given), which Potency is on record?
A: The Potency was inconclusive [inhibitor, single point].

Q: For O=c1c2ccccc2nc(-c2ccccc2)n1Cc1ccco1, which Potency is on record?
A: Its Potency is inconclusive [inhibitor, partial curve].

Q: For Fc1cccc(Cl)c1CNCCSc1nnnn1-c1ccccc1, which Potency is on record?
A: Its Potency is inconclusive [inhibitor, single point].

Q: For OCCN(Cc1ccccc1)CC(O)COc1ccc(-c2ccccc2)cc1 (stereo not given), which Potency is on record?
A: The Potency was inconclusive [inhibitor, single point].

Q: For CC(OC(=O)/C=C/c1cccs1)C(=O)Nc1ccc(C(N)=O)cc1 (stereo not given), which Potency is on record?
A: Its Potency is inconclusive [inhibitor, partial curve].

Q: With COc1ccc(C2=NN(C(=O)c3ccc(Cl)c([N+](=O)[O-])c3)C(c3ccccc3)C2)cc1 (stereo not given) as the compound, how does the Potency read?
A: The Potency was inconclusive [inhibitor, partial curve].

Source: PubChem BioAssay AID686978 (National Center for Advancing Translational Sciences (NCATS), 2013)
